Read-outs that look alike come from different tables or passages of the source.

For test [1], the system named is influenza virus A/PR/8/34 strain (インフルエンザウイルスA/PR/8/34株). The settings on record: Balb/C mice (female), intranasal 1.0 μmol/kg, given 7 days before infection (500 pfu).
For test [2] the test system is unchanged. The following applies: Balb/C mice (female), intranasal 0.3 μmol/kg; for survival rate: at 20 days after infection; for days until all mice had died: untreated mice all died by day 6.

On to `CCCCCCCC(=O)OC[C@@H](O)[C@@H](OC)[C@@H]1OC(C(=O)O)=C[C@H](N=C(N)N)[C@H]1NC(C)=O` [化合物A, 5-アセタミド-4-グアニジノ-9-O-オクタノイル-2、3、4、5-テトラデオキシ-7-メトキシ-D-グリセロ-D-ガラクト-ノン-2-エノピラソン酸], for which the surviving mice in test [1] (at 20 days after infection) was 63%. Moreover, the survival rate in test [2] (given 4 hours before infection (1,500 pfu)) stood at 100%; in test [2] (given 3 days before infection (1,500 pfu)) it was 83%; in test [2] (given 5 days before infection (1,500 pfu)) it was 50%. The figures for the “days until all mice had died” value in test [2] (given 7 days before infection (1,500 pfu)) and in test [2] (given 10 days before infection (1,500 pfu)) were 11 days and 8 days, respectively.
As for `CO[C@@H]([C@@H]1OC(C(=O)O)=C[C@H](N=C(N)N)[C@H]1NC(C)=O)[C@H](O)CO` [化合物B, 5-アセタミド-4-グアニジノ-2、3、4、5-テトラデオキシ-7-メトキシ-D-グリセロ-D-ガラクト-ノン-2-エノピラソン酸, reference compound], in test [1], the “day on which all mice had died” value turned out to be 11 days.

The record behind these values is JP2008297320A (priority 2000, dated 2001).
